# Experimental data from the supplement of paper PMC11417369.
# Some of the results follow.
# Test system: PfAP2-HC AP2 domain (GST-tagged)
# Assay: gcPBM binding intensity (ln(normalized median fluorescence intensity)); higher = stronger DNA binding
# Outline: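 Each value is the highest Masliner-normalised natural-log median intensity across replicate spots of either orientation of a probe. The probes were primer-extended double-stranded 36-bp intergenic genomic sequences on an Agilent 4 × 180k array, alongside negative controls, exposed for 1 h to GST-tagged P. falciparum DNA-binding domains expressed in E. coli. Bound protein was picked up with Alexa488 anti-GST antibody and scanned at 488 nm.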
row,Sequence,gcPBM binding intensity (ln)
1,TGAATAAAGATATATACACACATATAGGTATATATC [CACACA_site6870],9.86
2,TGCTTATATTTTTATACACACAAGATACTTTTTGTT [CACACA_site1535],9.89
3,TAAGAATTGAAAAAATGTACACAATATAAAATTGAA [XGTACX_site698],9.63
4,AAAACAAATAAGTAAACACACATATAAAATCTATAT [CACACA_site7262],10.1
5,CCTATTTATTTATACACACACATATATAAATAAATA [CACACA_site7417],9.89
6,TTATGTAAATGCTTATGTACTTATTACAATATTTTT [XGTACX_site4057],9.81
7,AAAAAGAAAAAAAAATGTACATAAAGTCTAATGATA [XGTACX_site4781],9.71
8,TTTATTACTATGTAAACACACATGCAATATATGTTA [CACACA_site1114],9.72
9,ATATTATATAAATACACACACACATGCATGCACATA [CACACA_site4236],11.2
10,AAAAAGAATAAATAAATAAATAAATATATATATATA [GTGCAC_negctrl_site584],9.79
11,TATTAATCATATAAATGTACGTATATATATTTTTCT [XGTACX_site1421],9.68
12,ATATATATATATATAACACACGTGTATATATATGTA [CACACA_site3644],9.83
13,CAATCATAGAAAAACAGTACGTGTAGCAAACATCCT [XGTACX_site4889],9.76
14,TATAATATATTATAACGTACAAATATATATATAAAA [XGTACX_site6581],9.72
15,AAAAAAAAAAAATATATATATATATATATATATATA [CACACA_negctrl_site1606],10.1
16,TATATATATTATATATGTACATATATTTTTTTTTTT [XGTACX_site127],9.7
17,ATTTATATTACAAAAAGTACACACATAAATAAATAC [XGTACX_site1827],9.8
18,GAAAATATAAAAAAAAGTACATTTTCTCTAAATATA [XGTACX_site2441],9.54
19,AAAAAGGGTATTATTACACACACGTAAATATTAAGA [CACACA_site4233],10.3
20,AAAAAAAAATTATATACACACATATAAATATATATA [CACACA_site1197],9.72
21,CTATATAATATGAGCACACATAAGATTTGGTGTTAT [CACACA_site744],9.73
22,AAAATCTAGGTATTTATACACACTAAAATAATATAC [CACACA_site623],9.72

row,Sequence,gcPBM binding intensity (ln)
1,CAAATACAGAAACACACACACATATACATATATATA [CACACA_site3498],10.4
2,TATATATATATATGGGGTACAAATGGTCAGTATTAT [XGTACX_site1223],9.93
3,ATGTTATTAAAAAAGGGTACACATCTTTTATGTTAA [XGTACX_site812],9.65
4,ATTACACATATAGTAGTGCAATAACTCCAAAAAAAA,9.57
5,TTTAAATATAATTGGAGTACTTATAATATATATATA [XGTACX_site7247],9.44
6,AATATGTAATAGTGTACACATATATCTGTATTTATG [CACACA_site4252],9.78
7,TTTTAAACAAGACACACACACATATATATATATATA [CACACA_site925],9.98
8,TTATTGTAAATATATGCATGTGCAAAATGAAAAAAA [TGCATGCA_site399],9.69
9,ATGTTTACATATTAGGGTACATAATAAATTGCATAT [XGTACX_site6712],9.53
10,CATGTATTTTATATTACACACTAATATTATATATAT [CACACA_site1508],9.77
11,GAATGTATAAAATGAACACACGCCAAATTAAATGAA [CACACA_site3044],9.8
12,AAAAATAATGCACATATATATAATATGTATATGTAT [CACACA_negctrl_site443],9.75
13,AAAAAATTAAATAATTACAAAAAAATAAAATAAAAA [GTGCAC_negctrl_site638],9.59
14,AATAAACAAATATGTACACACATATACCTATAAATA [CACACA_site7358],9.93
15,ATATTAGATTAATTTACACACAGAAAATGAGATTTT [CACACA_site541],9.79
16,TAGAGTATATATAAATGTACATATTTTATGCTAATT [XGTACX_site7821],9.66
17,AAACAATACATATATTGTACATATATTATATTATAT [XGTACX_site8136],9.84
18,CGGATCTATAAGTGTACACAATCTAGCGAAAAGTTT [CACACA_site4932],9.52
19,TTAGAAATTCATTTTACACACAATTCAAAAGAATGT [CACACA_site2104],9.71
20,AATTTGAAATAAAGTAGTACAGTATATAAAAATATA [XGTACX_site128],9.74
21,ATAATGATTATAATATGTACATAAATATATATATTA [XGTACX_site5029],9.73
22,ATTATGTTATATATATGTACATATATAATGTTCATA [XGTACX_site6184],9.6

row,Sequence,gcPBM binding intensity (ln)
1,AATAAATAAACAAATTAACACACAGAATTTTTTTTT [CACACA_site8485],9.94
2,ATAATTATAAAATAAACACACATATATATTTATATG [CACACA_site440],9.77
3,ATAAAATAAAAAAGTAGTACACACTTCACGATATTT [XGTACX_site8289],9.86
4,GTTATACACATATATACACACATATGTAGATATATA [CACACA_site7529],9.8
5,TTGATATCTTTTTTTTGTACATATATTTATAAGTAA [XGTACX_site3538],9.54
6,TTTTAGAGTGATATATATTAACTTTTAATAAAAAAA [CACACA_negctrl_site611],9.33
7,AAAATATAAGCCACTACACACATATATAAATGTATA [CACACA_site2639],10.5
8,TTTTTTTAAATTATATGTACATAATTTTAATTTTAT [XGTACX_site5086],9.63
9,ATACATATATTTTTATGTACATATATTTTTTTTGTA [XGTACX_site4546],9.71
10,TATAATATTCCTTTTTAACACACATATGAACAAATA [CACACA_site7932],9.58
11,ATAAATAAATAAATACGTACATATATATATATATAT [XGTACX_site8838],9.66
12,TTACCTATTCTAAAATGTACACATTATATATGTGCT [XGTACX_site5776],9.98
13,ACATGTTTCATATGTTGTACTAACTTAAATATAAAT [XGTACX_site6412],9.5
14,ATGATTTTTTTTATTTTTTAGCTAGAGCTAGCTTAT [CACACA_negctrl_site433],9.47
15,TATGGAAGAAAATATACACACAAAAAAAAAAAATGG [CACACA_site4924],9.9
16,ATATGTTAAAAATTCACACAAAAAAGTATACAGATA [CACACA_site4179],9.92
17,TATGAATGCTTTTATGCACACGTACAAAAATATTAT [CACACA_site8851],9.68
18,TTAACTATAATAAAATGTACATATGTAACATATATA [XGTACX_site7790],9.49
19,AGGTCCTACACCAATAAATATCATATATATATTATA [CACACA_negctrl_site568],9.43
20,TTATAACAAAAAATTAAAGAAAGAGAATAAGTGAAA [CACACA_negctrl_site975],9.64
21,TTGTACATCTTTTGCACACGTAATGTTATTAAAATA [CACACA_site4827],9.72
22,TGTATATTTGTTGTTACACACATATATTTTTTTTTT [CACACA_site128],9.86

row,Sequence,gcPBM binding intensity (ln)
1,TCATCATGTATGTACACACATACATATATTATGTAC [CACACA_site1386],9.89
2,CTTTTTGAAATATTAACACACATTTTGTTAATGAAT [CACACA_site6087],9.59
3,TATAAGTAGATAAGGGTGCACAATATAAATATATAG,10.1
4,GGTTAGACGAAATATACATGCAATGGAAAATAAGTT [TGCATGCA_site23],9.74
5,ATATTAATTTCTCATGCATGTTCTTCCCAATTGTAA [TGCATGCA_site425],9.85
6,GGAATAAAGACAGCACGTACATATCTTACGAAGCTC [XGTACX_site3918],9.65
7,CACAAGAAAATTCACACACACACATATATATATATA [CACACA_site3880],10.9
8,TCCTTAATTCAAAAAATAATATCTTATATTTCAAAT [CACACA_negctrl_site1592],9.13
9,TGAAATAAAATTTGTACACACATATTTATTTATATA [CACACA_site6421],9.77
10,TGCATTATATTAAATTTTTTATTTGTTGATGTTATA [GTGCAC_negctrl_site371],9.55
11,AAATAAAAGATATTTTTACACACTTTTGATGAGATC [CACACA_site9000],9.58
12,TATTTTTTTTGTCATATATAAGAAACGCTCTTCTTT [TGCATGCA_negctrl_site127],9.46
13,ATATTTATATTTTCATGTACGTATTTTTATATATAT [XGTACX_site8478],9.9
14,ATTTTTATTAGTTATTGTACTTATTATTTATTAATT [XGTACX_site2568],9.78
15,TATAGATATATACGGTGTACATACATAAAAAAAAAA [XGTACX_site1648],9.72
16,TATAGTCAACTAGTCACACATATAATTATATATATA [CACACA_site5872],9.64
17,TATAAAGAAATCATTACACACAAATAAATACATACA [CACACA_site2675],10.1
18,ATATATATACATATAACACACACATATATATATATA [CACACA_site8827],10
19,TTGTATTTATTTATGGGAGGATTATAATCATTGTAG [GTGCAC_negctrl_site268],9.49
20,TAATTCACATTTTATACACACATTCGAACCTTTTTT [CACACA_site3341],9.92
21,ATGAAAATTTATATTGCACACATAGGGAATAAAAAA [CACACA_site8667],9.86
22,AAATATATTATATTTAGTACGCATATATAATATGCA [XGTACX_site4835],9.41
